# Reference: the supplement of paper PMC11417369
# The other results are listed elsewhere or left out.
# Test system: PfSIP2 AP2 domain 1 (GST-tagged)
# Test: gcPBM binding intensity (ln(normalized median fluorescence intensity)); higher = stronger DNA binding
# Outline: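 For binding intensity, the highest Masliner-normalised natural-log median intensity across replicate spots of either probe orientation was taken. Protein bound to the array was stained with Alexa488 anti-GST antibody and scanned at 488 nm. The protein, GST-tagged P. falciparum DNA-binding domains from E. coli at about 25 μg on average, had been applied for 1 h to an Agilent 4 × 180k array of primer-extended double-stranded 36-bp intergenic genomic probes and negative controls.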
row,Sequence,gcPBM binding intensity (ln)
1,TATTAAACTAAATGTAGTACATACACAAACGTAATC [XGTACX_site4905],7.09
2,CGAACATTATAAATGTCATTTTTTCCAACTTGATCT [GTGCAC_negctrl_site501],6.69
3,TTTTTTTAAATATACACACACATTTATACCTATATA [CACACA_site7572],6.99
4,TATATATATATAGACACACACACACCCATATATATA [CACACA_site4117],9.12
5,TATAACTATAAAAGTAGTACACATATATATTATATA [XGTACX_site1391],7.79
6,AATGGTTTAAAATACTGTACATATATATAAAAGTAA [XGTACX_site6187],7.14
7,TTCCTAATTGACAACACACACAACAAAAAAGGGATT [CACACA_site1279],7.19
8,CACTAAAATAAACACACACACACACCGATATATATA [CACACA_site9379],7.58
9,CTTGTCATTTTGCACACACACATGTATAGGTTATTA [CACACA_site7431],7.78
10,TATATTTATATGATAACACACATAAATTATACATTT [CACACA_site1671],6.88
11,TTAATTTTATTTTTTTGTACACATAAATATTATAAA [XGTACX_site4680],7.16
12,AGTCTGAATAAAATTACACACATATACATATATATA [CACACA_site1780],7.41
13,TAAATATATTAAGCTTGTACATGAAAAAAAAAAAAA [XGTACX_site3264],7.13
14,ATATATAAATTTTAGTGTACATTAATTTTTTTTTTT [XGTACX_site7782],6.95
15,AAAAAAAAAAAAAAAACACACAATAAAGTAAAATTT [CACACA_site135],7.55
16,TATGTATATAAATTAACACACATATGTGGTTAATAG [CACACA_site3143],6.89
17,TACCTTTTTTGTTTTATGCACACCATATAACCAAGG [CACACA_site30],7.82
18,TAAAAAAAAAAAAAAGCATGCTATATTATATTACAC [TGCATGCA_site241],6.89
19,AAGAAATATTTATACACACACACAAACATATAAATA [CACACA_site6981],7.07
20,TATAACTATTCACAGACATGCACATAATAACAATAA [TGCATGCA_site207],8.14
21,TTTTTTTTTCCGTGTTGTACAAAAAAAAAGATTTTG [XGTACX_site3925],6.99
22,TATATTTTTTTTGTGCGTACATACCATTTTAATAAT [XGTACX_site2751],7.41
23,CACAAACAAAAACACACACACACACCCACAAAAATG [CACACA_site2429],7.06

row,Sequence,gcPBM binding intensity (ln)
1,TATTATTTTATGAATACACACATATACGAAAATATT [CACACA_site964],7.03
2,AATTATTGTATGCTATACGTTCCCCTCTAATTTATC [CACACA_negctrl_site1052],6.8
3,ATTGGGTACAAATACACACACATATAAATATTAATA [CACACA_site7173],7.11
4,TATTTTTATATAATGTGTACTTATACCTTATTTTTT [XGTACX_site1658],7.2
5,AAAAAAAAAAAACACACACACACACTAATACATACA [CACACA_site8135],7.21
6,TTTCCCTACCAAAAATGTACTTATAAGCGTTTTTAT [XGTACX_site739],6.88
7,TTTTTAAATTATTGCACACAAAAATGAAAGGAAAAA [CACACA_site1455],7.2
8,CTAAAAATCTTTTGTTGTACTTTTAGATAATCAGGA [XGTACX_site3968],7.06
9,TACATATTTATATACACACACACCGTCCGTGTTAAA [CACACA_site7413],6.95
10,AAGTAAAAAAATAGCACACACACAAAAACACAGACA [CACACA_site4839],7.45
11,AAAGGGATGTTCATTCTTTTTTTTTTTTTTGTATAT [CACACA_negctrl_site511],6.69
12,ATTTTCACCTGAACGGTGCATATTTAATTTTAGGTT,10.5
13,ATATATGTACAAATTGTGCGCAATAATTTTGTCTTT,7.4
14,ATAGAAACATATTGACGTACAGTATAATAATACAGT [XGTACX_site197],7.07
15,AAATCAACTTATTTTTGTACATATATTTATTATATA [XGTACX_site2925],6.99
16,TCTTTATGTAAGGTCTTCCACAAAAAAATTAAAAAA [TGCATGCA_negctrl_site229],7.05
17,GAAAAATTAATAAATAAACACACATATATATATATA [CACACA_site8835],9.9
18,ATATATTATAGAGGTGTGCACTACATACATTATAAT [GTGCAC_site9991],10.2
19,GAATGAAAATAAAATTGTACACATATCTATATCTAT [XGTACX_site2642],7.04
20,AAAAAAAAAAAAAGTTGTACATTATTTTCCTAATTC [XGTACX_site7998],6.91
21,TATATTATATGTATTGCACACCTTCAACAACTACTT [CACACA_site8121],7.25
22,TTTAATTAGGATAATTGTACTGAACTAAGTATATTT [XGTACX_site1871],6.79
23,ATACATATATATGTGTGTACATATGTGTATACATTT [XGTACX_site6544],7.13

row,Sequence,gcPBM binding intensity (ln)
1,TTTTATAAATCTAAACGTATCTAAATGAATAATTAA [GTGCAC_negctrl_site44],6.73
2,ATATGTATTAAGTGTACACATATAATGGGTTTGTTA [CACACA_site5682],7.21
3,GAAATAATTGTTAAAGGTACACAATGCATATACAAT [XGTACX_site238],6.97
4,ATAATATATACTAAAAGTACATATTATAATAAATTA [XGTACX_site6749],6.78
5,ACTTCATTTTTTTTATGTACACAGAAGATTTACAAA [XGTACX_site4021],7.86
6,AGGAAAATAGAAAAAGCACACATATATTTTGGAATG [CACACA_site8080],6.92
7,ACATATGTATGAATATCAAAAAATCCCTATTTAATG [GTGCAC_negctrl_site27],6.8
8,AAAATAATAATTAATACATGCATTAATTCTTTTTTT [TGCATGCA_site741],6.5
9,TATATAAATAAATGTGTACACACATTAAAATCAAAC [CACACA_site8733],7.89
10,CATATATTATTTAATAGTACATATAAAAGAAAAAAA [XGTACX_site4643],6.99
11,TATATACATATATATACACACATATATATATTTTAT [CACACA_site3788],7.18
12,ATTTATTTATTTTTTTGTACGAATGTTGCACATATA [XGTACX_site4101],7.43
13,GTTATAACTCAAATATGTACATATTATAAAACATAT [XGTACX_site6693],7.24
14,TATAAAAATAAGCACACACACAAATATATATTTATT [CACACA_site922],6.96
15,TTATAGAACTATATTGCACACATAATATATATATAT [CACACA_site9042],9.04
16,AAAAAAAAAAAAAAAGGTACACAAATACGTCCTGCA [XGTACX_site3354],7.65
17,AATTATCAAAGTCTATACATACATACATACATACAT [GTGCAC_negctrl_site243],7.56
18,TAATTATAATAAAAAGGTACAGAAAAGTTATACTCA [XGTACX_site6111],6.7
19,ATAAAATAAATAAATATAAATATATATATATATATA [TGCATGCA_negctrl_site358],9.26
20,TAAGAAAAAGGCACACGTACATAATTCAAAATAAAT [XGTACX_site982],7.05
21,CCAATGAGGATATATACACACATACATTAAAAAAAT [CACACA_site5090],7.05
22,ATATATATGTATGTATGTACTTATTTATTTATTTAT [XGTACX_site7740],7.19
23,TTTTTTTTCACACATTGTACTTTTTTATAAAATATA [XGTACX_site4351],7.34

row,Sequence,gcPBM binding intensity (ln)
1,ATTTAAATAATATGTACACACATTTAAAAAATTATA [CACACA_site2816],7.13
2,GTCAACTTGTGATAAGTGCATATATATAATAAAATG,8.24
3,CGAAATAAATCTTATGCACACAAATAATTAATTAAA [CACACA_site8491],8.2
4,AAAAAAATATAATATTTGAATAAATATAATAATATG [XGTACX_negctrl_site477],7.01
5,AATATATAGGTATTTACACACAATGTGAGATCTATA [CACACA_site3407],6.8
6,ATTTATGAAAAGTAAAGTACACACAGGAAAAAAAAA [XGTACX_site3564],6.94
7,TAATTTTTCCTTTTTGCACACATTAACGTCGACGAA [CACACA_site4025],7.27
8,CAATTTATTTTTATTACACACTATCCAAATAATTTC [CACACA_site2956],6.99
9,CCATAAAATCATAAGCGTACTTAATATATTTTACTT [XGTACX_site559],6.96
10,TTAAACAATTTAGACATACACACAAAAATAATATTA [CACACA_site385],7.01
11,AACATACGACAATACGCACACATATATGTACATATT [CACACA_site1917],7.23
12,TATATAATAATTTAGAGTACTGATAAAATATTCCAT [XGTACX_site6200],7.03
13,AGCATACATATTTTTTGTACATATATATATATATAT [XGTACX_site8536],8.87
14,TGCTCCTATTATATAGTGCATTTATTTTAATAAACG,8.87
15,TAATTTATAAAAAATTGTACATTAAACATATATATA [XGTACX_site5164],7.01
16,TCTTTTCGTTCATGCTGTACTTAATTGCTCTAATTT [XGTACX_site4816],7.36
17,CCCTGCCTCTCTTTGGTGCGTTGTAACCCTCGAGGA,9.25
18,AAAAAAAAAAAAAGCACACACACATATGTGTATATA [CACACA_site8225],7.16
19,TGTCTGTGCGGGTGTACACATTTCATATTACCCAAT [CACACA_site5593],7.64
20,TAAATTGTATATGAGACTATACTATAAAAGTATGAA [XGTACX_negctrl_site22],6.66
21,AATTAGATACTAACAAGTACATATATATATATATAT [XGTACX_site2252],9.77
